Where two headings read alike, the source gives them in different places.
How the values were obtained:
[1] = system: WM-164 melanoma cells; test: Microtubule imaging (immunofluorescence); type: cell-based, human; conditions: 18 h treatment
Excerpt: Primary antibody for tubulin and fluorescence-labeled secondary antibody were subsequently added to the cells. Cell nuclei were stained by DAPI. Whole Cell Stain Green was also applied to all cells. All images were acquired with an Olympus IX71 inverted fluorescence microscope (Olympus Corp., Tokyo, Japan) with overlays from separate images of tubulin (red), nuclei (blue), and whole cells (green).

[2] = system: MES-SA; test: SRB growth inhibition assay; type: cell-based; conditions: Homo sapiens, 96 h, Table 7
[3] = system: LNCaP; test: cells; conditions: Homo sapiens, 96 h, read-out: IC50 (nM), LNCaP
[4] = system: DU 145; test: cells; conditions: Homo sapiens, DU-145, 96 h, read-out: IC50 (nM), DU-145
[5] = system: PPC-1; test: cells; conditions: Homo sapiens, PPC-1, 96 h
[6] = system: HUVEC monolayers; test: Endothelial monolayer permeability assay; type: cell-based, human; conditions: leakage of dextran after 1, 2, 4 h
[7] = system: MES-SA/DX5; test: SRB growth inhibition assay, P-gp over-expressing line; type: cell-based
[8] = system: PC-3; test: cells; conditions: Homo sapiens, PC-3, 96 h, read-out: IC50 (nM), PC-3
Excerpt: The only compounds which belong to the invention are the ones falling under the scope of formula (XI).
Cells were stained with SRB solution.
Cells. […] Cells between the third and fifth passages were used for experiments.
Cell growth inhibition studies. […] Cells were stained with sulphorhodamine B (SRB) solution.

[9] = system: A375 cells; test: Cell cycle analysis (G2/M arrest), flow cytometry; type: cell-based; conditions: Homo sapiens, A-375; 24 h; Figure 25D; read-out: concentration from which most cells are arrested in the G2/M phase
[10] = system: B16-F1 melanoma cells; test: Melanoma colony formation assay in soft agar; type: cell-based; conditions: Mus musculus, B16-F1, 336 h, read-out: concentration with effective inhibition of colony formation; 14 days; tested 20, 100, 500 nM
Description: B16-F1 melanoma cells were plated at a colony-forming density (2000 cells per well on six-well plates) on top of 0.8% base agar. Cells were grown in 0.4% agar together with DMEM medium supplemented with fetal bovine serum and an antibiotic-antimycotic solution at 37 °C in an atmosphere of 95% air and 5% CO2. […] Compounds were added to the media from 1 mM DMSO stock solutions, and a corresponding dilution of DMSO was used as control. Cells were grown for 14 days. Plates were photographed, and the number of colonies was measured by Artek 880 Automated Colony Counter (Artek Systems Corporation, Farmingdale, NY).

With `COc1cc(C(=O)c2c[nH]c(-c3ccc(C)cc3)n2)cc(OC)c1OC` [12da, (2-(p-Tolyl)-1H-imidazol-4-yl)(3,4,5-trimethoxyphenyl)methanone] the “effect on microtubules” value [1] was “microtubule fragmentation”.
`CC(=O)O[C@@]12CO[C@@H]1C[C@H](O)[C@@]1(C)C(=O)[C@H](O)C3=C(C)[C@@H](OC(=O)[C@H](O)[C@@H](NC(=O)OC(C)(C)C)c4ccccc4)C[C@@](O)([C@@H](OC(=O)c4ccccc4)[C@H]21)C3(C)C` [Docetaxel, reference compound] gave an IC50 [2] of 5.9 ± 1.1 nM, an IC50 [3] of 4.7 ± 1.3 nM and an IC50 [4] of 5.2 ± 1 nM.
`O=C(c1ccc(F)cc1)c1c[nH]c(-c2ccc(Cl)cc2)n1` [12fb, (2-(4-Chlorophenyl)-1H-imidazol-4-yl)(4-fluorophenyl)methanone] gave an IC50 ([5]; read-out: IC50 ± SEM (nM) PPC-1) of 32 ± 1 nM.
With `CC(=O)O[C@H]1C(=O)[C@@]2(C)[C@H]([C@H](OC(=O)c3ccccc3)[C@]3(O)C[C@H](OC(=O)[C@H](O)[C@@H](NC(=O)c4ccccc4)c4ccccc4)C(C)=C1C3(C)C)[C@]1(OC(C)=O)CO[C@@H]1C[C@@H]2O` [Paclitaxel, reference compound] the “effect on microtubules” value [1] was “condensation of microtubules”.
For `COc1ccc(/C=C\c2cc(OC)c(OC)c(OC)c2)cc1O` [CA4], the “permeability of endothelial cell monolayer” value [6] was “increased permeability”.
In the case of `Fc1ccc(-c2nccc3ccc(-c4ccc5[nH]ccc5c4)cc23)cc1` [6c, 1-(4-Fluoro-phenyl)-7-(1H-indol-5-yl)-isoquinoline], the IC50 [2] is reported as 35.6 ± 2.8 nM, the IC50 ([7]; Homo sapiens, MES-SA/Dx5, P-gp over-expressed, SRB, 96 h, Table 7) is reported as 59.2 ± 0.1 nM and the Resistance factor ([7]; ratio of IC50 MES-SA/DX5 to MES-SA, 5760 min) is reported as 1.7. It also gave an IC50 [3] of 38.3 ± 9.7 nM, an IC50 ([5]; read-out: IC50 (nM), PPC-1) of 27.7 ± 4.5 nM and an IC50 [8] of 25.6 ± 8.3 nM. It also gave an IC50 [4] of 46.6 ± 13.8 nM.
For `COc1ccc(-c2nc(C(=O)c3ccc(F)cc3)c[nH]2)cc1` [12cb, (4-Fluorophenyl)(2-(4-methoxyphenyl)-1H-imidazol-4-yl)methanone], the minimal effective concentration [9] was 0.2 µM, the “effect on microtubules” value [1] was “microtubule fragmentation” and the minimal effective concentration [10] was 0.02 µM.

— patent EP2608671B1, “COMPOUNDS FOR TREATMENT OF CANCER” (Gtx, Inc., priority 2010, dated 2012)
